Values joined by “and” are separate entries in the source; they are usually repeats but may differ in a detail not shown here. Identical values can stand only once. The shares of active, inactive and inconclusive entries below differ from those in the screen. Where the call is inconclusive, the potency comes from a doubtful curve fit. Active and inactive are the calls of the source. The call rests on the fitted dose curve; in most records, active means well fitted inhibition curve with a large enough effect; inconclusive means small, poorly fitted or top-dose-only effect; inactive means flat fitted curve, though single readings scatter.
assay: qHTS for Inhibitors of Plasmodium falciparum (7G8) proliferation (AID 504316); further: nearly all actives have a fitted effect of over 65% in size;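 on activity change, negative = inhibition: 0% = DMSO vehicle and -100% = 0.29 µM artemisinin full kill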; conditions: P. falciparum 7G8 in erythrocytes, SYBR Green DNA, 72 h; activity change, negative = inhibition: at 6.7 µM (top of the series)
Method in brief: (§1)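 Erythrocytes infected with P. falciparum line (0.3% parasitemia, 2.5% hematocrit final) incubated with compounds 72 h at 37 °C, 5% CO2; SYBR Green lysis buffer added, fluorescence read next day. Normalized to 0.29 uM artemisinin and DMSO.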
Potency means the concentration at half of the fitted maximal effect; tags describe the fitted curve by direction and shape.

Row | SMILES | Potency | activity change, negative = inhibition
1 | COC(=O)C1=C(C(=O)OC)[C@@H]2Nc3ccccc3[C@@]23C[C@@H](C(=O)OC)N(C(=O)COCc2ccccc2)C3=N1 | inconclusive: 4.26 µM [inhibitor, single point] | –
2 | CCN(CC)CCCN1C=C2C(=O)C(C)(OC(=O)c3cccs3)C(=O)C=C2C=C1CCCC(=O)OC (stereo unspecified) | – | inactive: -1.21%
3 | COC(=O)c1ccc(CN2C(=O)[C@]3(OCCC=C[C@@H]3C)c3c(Br)cccc32)cc1 | inconclusive: 4.26 µM [inhibitor, single point] and inactive | –
4 | C=CCN1c2ccccc2[C@]23C[C@@H](C(=O)OC)N(C(=O)c4cc(C)oc4C)C2=NC(C(=O)OC)=C(C(=O)OC)[C@H]13 | inconclusive: 1.51 µM [inhibitor, single point] | –
5 | CCC12C=C(C=Cc3ccccc3)C(CC)(C1)C(c1ccccc1)CC2=O (stereo unspecified) | inconclusive: 1.9 µM [inhibitor, partial curve, poor fit] | –
6 | COC(=O)[C@]1(C=C2c3ccccc3C[C@H](OC)[C@@H]2C)[C@@H]2CC=C[C@@H]21 | inconclusive: 1.69 µM [inhibitor, partial curve] | –
7 | COC(=O)C1=C(C(=O)OC)[C@@H]2Nc3ccccc3[C@@]23C[C@@H](C(=O)OC)N(C(=O)c2cc(C)oc2C)C3=N1 | active: 1.69 µM | –
8 | COC(=O)C1=C(C)N(Cc2ccccc2)C(=NCCc2c[nH]c3ccccc23)NC1c1ccc(Br)cc1 (stereo unspecified) | – | inactive: -6.43%
9 | COC(=O)C1=C(C(=O)OC)[C@@H]2N(C)c3ccc(OC)cc3[C@@]23C[C@@H](C(=O)OC)N(C(=O)CC(C)C)C3=N1 | inconclusive: 1.9 µM [inhibitor, single point] | –
10 | CC(C)=CCCC(C)=CCN1C(=O)[C@]2(OCCC=C[C@H]2C)c2ccccc21 | inconclusive: 3.01 µM [inhibitor, single point] | –
11 | Cc1ccccc1Nc1oc(-c2ccccc2)nc1C=Cc1ccccc1 | inconclusive: 4.26 µM [inhibitor, single point] | –
12 | C#CCCOC(=O)N1C2=NC(C(=O)OC)=C(C(=O)OC)[C@@H]3N(Cc4ccccc4)c4ccccc4[C@]23C[C@H]1C(=O)OC | inconclusive: 3.01 µM [inhibitor, single point] | –
13 | CCN1C(=O)NC(c2ccc(Br)cc2)C(C(C)=O)=C1C (stereo unspecified) | inconclusive: 1.9 µM [inhibitor, partial curve, poor fit] | –
14 | CCCCC1=CC2=C(c3ccco3)C(=O)C(C)(OC(=O)c3ccc(OC)cc3)C(=O)C2=CN1C1CCCCC1 (stereo unspecified) | inconclusive: 1.51 µM [inhibitor, single point] | –
15 | C=CCC12OC3(OC)CC1[C@H](C)[C@@H](c1ccccc1)C2[C@]3(O)CC=C (stereo partly specified) | – | inactive: 14.9%
16 | CC[C@@H](C)CN1C(=O)N[C@@H](CCc2ccccc2)C(C(C)=O)=C1C | inactive | –

assay: qHTS for Inhibitors of Plasmodium falciparum (HB3) proliferation (AID 504318); further: nearly all actives have a fitted effect of over 60% in size;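 on activity change, negative = inhibition: 0% = DMSO vehicle and -100% = artemisinin control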; conditions: P. falciparum HB3 in erythrocytes, SYBR Green DNA, 72 h; activity change, negative = inhibition: at 7.21 µM (top of the series)
Method in brief: as §1

Row | SMILES | Potency | activity change, negative = inhibition
17 | COC(=O)N[C@H](C(C(=O)OC)=C(C)NCc1ccccc1)c1ccccc1 | inconclusive: 4.26 µM [inhibitor, single point] | –
18 | CCN1C(=NCCCCO)N[C@@H](CCc2ccccc2)[C@H](C(=O)OC)[C@H]1C | – | inactive: 0.326%
19 | COC(=O)C1=C(C(=O)OC)[C@@H]2Nc3ccccc3[C@@]23C[C@@H](C(=O)OC)N(S(=O)(=O)c2ccc(C(F)(F)F)cc2)C3=N1 | inconclusive: 4.26 µM [inhibitor, single point] | –
20 | CCOC(=O)C1(C(=O)OCC)CC2=C(C=CC3=C(C=C2)CC(C(=O)OCC)(C(=O)OCC)C3)C1 | inconclusive: 4.26 µM [inhibitor, single point] | –
21 | COC(=O)CCC(=O)OC1(C)C(=O)C=C2C=C(C3CC3)N(c3cccc(C#N)c3)C=C2C1=O (stereo unspecified) | inconclusive: 0.0757 µM [inhibitor, partial curve, poor fit] | –
22 | C=CCN1c2ccccc2[C@]23C[C@@H](C(=O)OC)N(C(=O)c4cccs4)C2=NC(C(=O)OC)=C(C(=O)OC)[C@H]13 | inconclusive: 1.69 µM [inhibitor, single point] | –
23 | CCCCc1cc2c(cn1)=C(OC(=O)c1cnc3ccccc3n1)C(C)(OC(=O)CC)C(=O)C=2 (stereo unspecified) | inconclusive: 2.13 µM [inhibitor, single point] and inconclusive: 1.69 µM [inhibitor, single point] | –
24 | C#CCCCON=C1C[C@@H](O)[C@H](O)[C@H]2[C@@H]3C(=O)N(C4CCCCC4)C(=O)[C@@H]3CC[C@@H]12 | – | inactive: -3.8%
25 | COc1ccc2c(c1)[C@@]1(OCCC=C[C@@H]1C)C(=O)N2Cc1ccc(F)cc1 | inconclusive: 1.69 µM [inhibitor, single point] | –
26 | CC1(OC(=O)CCc2ccccc2)C(=O)C=C2C=C(c3ccc(C#N)cc3)N(c3ccccc3)C=C2C1=O (stereo unspecified) | – | inactive: -2.09%
27 | C=C(C)C1CC23C(=O)[C@]4(C(=O)c5ccccc5)C[C@@]5(C)CCC(CC2C1(C)C)(C4=O)[C@@]35OC (stereo partly specified) | inconclusive: 1.69 µM [inhibitor, single point] | –
28 | C=C(C(C)=O)C(O)c1ccccc1 (stereo unspecified) | inconclusive: 1.9 µM [inhibitor, single point] | –
29 | COc1cccc(C(CC2=CCCCC2)NC(=O)C(F)(F)F)c1 (stereo unspecified) | – | inactive: 3.35%
30 | C[C@H]1Cc2c(COc3ccccc3)nc3c(c2CO1)CN(C(=O)c1cc(I)ccc1F)CC3 | inconclusive: 928 nM [inhibitor, partial curve, poor fit] and inconclusive: 1.9 µM [inhibitor, partial curve, poor fit] | –
31 | COC(=O)C1=C(C(=O)OC)[C@@H]2N(C)c3ccc(OC)cc3[C@@]23C[C@@H](C(=O)OC)N(S(=O)(=O)c2ccc(C(F)(F)F)cc2)C3=N1 | inconclusive: 1.9 µM [inhibitor, single point] | –
32 | C=C(C#Cc1ccc(OC)cc1)CCN1C=C(C(=O)OCC)C(c2ccccc2)NC1=O (stereo unspecified) | – | inactive: -3.96%
33 | COc1ccc2c(c1)[C@@H](NC(=O)C(F)(F)F)C1CCCCC21c1ccccc1 (stereo partly specified) | inconclusive: 1.35 µM [inhibitor, partial curve, poor fit] | –
34 | COC(=O)C1=C(C(=O)OC)[C@@H]2N(C)c3ccc(OC)cc3[C@@]23C[C@@H](C(=O)OC)N(S(=O)(=O)c2ccc(C)cc2)C3=N1 | inconclusive: 1.51 µM [inhibitor, partial curve] | –

Row | SMILES | Potency | activity change, negative = inhibition
35 | Cc1cc2c(c(=O)o1)[C@H]1O[C@](CCCCN3C(=O)c4ccccc4C3=O)(Cc3cc(C#N)ccc31)O2 | inconclusive: 4.26 µM [inhibitor, partial curve, poor fit] | –
36 | COC(=O)N1C2=C(c3ccccc3[C@@H]1CC(=O)Nc1ccc(Br)cc1)[C@@H]1C(=O)N(c3ccccc3)C(=O)[C@@H]1[C@H](C)C2 | inconclusive: 1.69 µM [inhibitor, partial curve] | –
37 | COc1ccc2c(c1)c(CC(=O)NCc1ccc3c(c1)OCO3)c(C)n2C(=O)c1ccc(Cl)cc1 | inconclusive: 0.0675 µM [inhibitor, partial curve, poor fit] | –
38 | COC(=O)C1=C(C(=O)OC)[C@@H]2N(C)c3ccccc3[C@@]23CCC(=O)N(Cc2ccc(OC)cc2)C3=N1 | inconclusive: 3.29 µM [inhibitor, partial curve, poor fit] | –
39 | COc1cccc([C@@H]2Oc3ccc(OC)cc3C(=O)[C@@H]2OC(=O)N[C@H]2CCCc3ccccc32)c1 | inconclusive: 3.55 µM [inhibitor, single point] | –
40 | COc1cccc(CC(=O)N2CCc3nc(-c4ccc(OC)cc4C)c4c(c3C2)CO[C@@H](c2ccccc2)C4)c1 | inconclusive: 4.26 µM [inhibitor, single point] | –
41 | COC(=O)C1=C(C(=O)OC)[C@@H]2Nc3ccccc3[C@@]23C[C@@H](C(=O)OC)N(C(=O)COCc2ccccc2)C3=N1 | inconclusive: 1.51 µM [inhibitor, partial curve] | –
42 | CCN(CC)CCCN1C=C2C(=O)C(C)(OC(=O)c3cccs3)C(=O)C=C2C=C1CCCC(=O)OC (stereo unspecified) | – | inactive: -14.1%
43 | COC(=O)c1ccc(CN2C(=O)[C@]3(OCCC=C[C@@H]3C)c3c(Br)cccc32)cc1 | inconclusive: 3.98 µM [inhibitor, partial curve, poor fit] | –
44 | C=CCN1c2ccccc2[C@]23C[C@@H](C(=O)OC)N(C(=O)c4cc(C)oc4C)C2=NC(C(=O)OC)=C(C(=O)OC)[C@H]13 | inconclusive: 4.26 µM [inhibitor, single point] | –
45 | CCC12C=C(C=Cc3ccccc3)C(CC)(C1)C(c1ccccc1)CC2=O (stereo unspecified) | – | inactive: -8.78%
46 | COC(=O)[C@]1(C=C2c3ccccc3C[C@H](OC)[C@@H]2C)[C@@H]2CC=C[C@@H]21 | inconclusive: 2.39 µM [inhibitor, single point] | –
47 | COC(=O)C1=C(C(=O)OC)[C@@H]2Nc3ccccc3[C@@]23C[C@@H](C(=O)OC)N(C(=O)c2cc(C)oc2C)C3=N1 | active: 1.69 µM | –
48 | COC(=O)C1=C(C)N(Cc2ccccc2)C(=NCCc2c[nH]c3ccccc23)NC1c1ccc(Br)cc1 (stereo unspecified) | – | inactive: 8.29%
49 | COC(=O)C1=C(C(=O)OC)[C@@H]2N(C)c3ccc(OC)cc3[C@@]23C[C@@H](C(=O)OC)N(C(=O)CC(C)C)C3=N1 | inconclusive: 4.26 µM [inhibitor, single point] | –
50 | CC(C)=CCCC(C)=CCN1C(=O)[C@]2(OCCC=C[C@H]2C)c2ccccc21 | inconclusive: 1.51 µM [inhibitor, partial curve, poor fit] | –
51 | Cc1ccccc1Nc1oc(-c2ccccc2)nc1C=Cc1ccccc1 | inconclusive: 4.26 µM [inhibitor, single point] | –

Source: PubChem BioAssay (NCATS)
